Screen size: about 420,000 compounds; about 50,000 (12%) were called active. The shares of active, inactive and inconclusive entries below differ from those in the screen. Calls follow the shape of the dose curve; as a rule, active = well fitted inhibition curve with a large enough effect; inconclusive = small, poorly fitted or top-dose-only effect; inactive = flat fitted curve, though single readings scatter. Potencies of inconclusive entries are left out as doubtful fits.
Test: qHTS for Inhibitors of human tyrosyl-DNA phosphodiesterase 1 (TDP1): qHTS in cells in presence of CPT; also: nearly all actives have a fitted effect of over 55% in size
Settings: chicken DT40 Tdp1-/-;hTDP1 cells + 20 nM CPT, ATP luminescence, 48 h; activity change, negative = growth inhibition: at 46.2 µM (top of the series)
Outline: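 Cell growth measured by CellTiter-Glo luminescence after a minimum 48 h, 37 C compound exposure with 20 nM CPT in Tdp1-knockout DT40 cells stably expressing hTDP1, seeded 400/well; qHTS titration format.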
In the case of `Oc1ccc(Br)cc1-c1n[nH]c(=S)n1Cc1ccccc1`, the “activity change, negative = growth inhibition” value is reported as inactive: -11.3%. With `O=C(/C=C/c1ccc(F)cc1)Nc1nc2n(n1)C(c1ccc(Cl)cc1)C=C(c1ccccc1)N2` (centres undefined) the Potency was inconclusive [inhibitor, single point]. With `Cc1ccc(NC(=O)CN(C)C(=O)CSc2nc3ccccc3c(=O)n2CCO)cc1` the Potency was inconclusive [inhibitor, single point]. In the case of `O=C(O)c1ccc2c(=O)n3c(nc2c1)/C(=C/c1ccc(Cl)cc1Cl)CC3`, the Potency is reported as inconclusive [inhibitor, single point]. With `O=C1Nc2c(Cl)cccc2C1=O` the Potency was active: 14.6 µM. With `CC(C)(C)c1csc(NC(=O)C2COc3ccccc3O2)n1` (centres undefined) the Potency was inconclusive [inhibitor, single point]. In the case of `COc1ccc(CN2CCN(Cc3ccc(C)cc3)C(CCO)C2)cc1OC` (centres undefined), the Potency is reported as inconclusive [inhibitor, single point]. For `CCOC(=O)Cn1c(CN2CCc3ccccc3C2)nc2c1c(=O)n(C)c(=O)n2C`, the Potency was active: 4.11 µM. With `O=C(COC(=O)c1cnccn1)NCc1ccc(Cl)cc1` the “activity change, negative = growth inhibition” value was inactive: 15.5%. For `CC(NC(=O)c1cc(S(=O)(=O)N2CCCC2)cn1C)c1ccccc1` (centres undefined), the Potency was inconclusive [inhibitor, single point]. In the case of `COc1ccc(C(=O)Nc2ccc3oc(-c4cccc(Cl)c4)cc(=O)c3c2O)cc1`, the “activity change, negative = growth inhibition” value is reported as inactive: -28.1%. For `O=[N+]([O-])c1cc(CN2CCCC2)ccc1Sc1ccc(Cl)cc1`, the Potency was active: 10.3 µM. In the case of `CCOC(=O)C1CCN(Cc2c(C(=O)N3CCOCC3)nc3c(C)cccn23)CC1`, the “activity change, negative = growth inhibition” value is reported as inactive: 2.99%. For `COc1ccc(CCNC(=S)Nc2ccc(C)cc2C)cc1`, the Potency was inconclusive [inhibitor, single point]. In the case of `Cc1ccc2sc(N3CCN(C(=O)CCS(=O)(=O)c4ccc(F)cc4)CC3)nc2c1C`, the Potency is reported as active: 4.11 µM. For `COc1ccc2c(c1)CCC2=O`, the “activity change, negative = growth inhibition” value was inactive: 12%. With `COc1ccc(OC)c(CNC(=O)CCn2c(=O)c3cccn3c3ccc(F)cc32)c1` the Potency was inconclusive [inhibitor, single point]. For `CCn1c(=O)c(C(=O)NNS(=O)(=O)c2ccc(C)cc2)c(O)c2ccccc21`, the Potency was inconclusive [inhibitor, single point]. In the case of `Cc1ccc(-c2noc(CSc3nnc(CCc4ccccc4)n3-c3ccccc3)n2)cc1`, the Potency is reported as active: 16.4 µM. With `C/C(=N\NC(=O)c1ccc(OC2OCCOC2Oc2ccc(C(=O)N/N=C(\C)c3ccncc3)cc2)cc1)c1ccncc1` (centres undefined) the Potency was active: 6.51 µM. With `Cc1noc(/C=C/c2ccco2)c1S(=O)(=O)N1CCC(C(=O)Nc2ccc(F)c(Cl)c2)CC1` the Potency was active: 5.17 µM. With `Cc1ccc2nc(SCC(=O)NCc3cccs3)c(C#N)cc2c1` the “activity change, negative = growth inhibition” value was inactive: -3.99%. With `CN(Cc1ccon1)C(=O)c1ccc2nc(Cc3cccc(Cl)c3)oc2c1` the Potency was inconclusive [inhibitor, full curve, poor fit]. For `COc1ccc(-n2ncc3c(NCCC4=CCCCC4)ncnc32)cc1`, the Potency was active: 16.4 µM. In the case of `CCCCN1C(=O)C(=O)N(CC(=O)Nc2ccccc2C(=O)OCC)C1=O`, the Potency is reported as inconclusive [inhibitor, single point]. In the case of `CC1(C)CC(NS(=O)(=O)c2ccc(Cl)cc2)CC(C)(C)N1`, the “activity change, negative = growth inhibition” value is reported as inactive: 2.67%. In the case of `CCN(Cc1ccccc1)C(=O)COc1cc(=O)n(CC)c2ccccc12`, the Potency is reported as inconclusive [inhibitor, single point]. For `CCC1=Nc2cc(C(=O)NC3CCCC3)ccc2Sc2ccc(Br)cc21`, the Potency was active: 0.731 µM. With `COc1ccccc1C#Cc1cnc2c(c1)C(=O)N([C@H](C)CO)C[C@H](C)[C@@H](CN(C)S(=O)(=O)c1cn(C)cn1)O2` the Potency was inconclusive [inhibitor, single point]. With `COc1cccc(N2CCN(C(=O)c3cc(C)oc3C)CC2)c1` the Potency was active: 11.6 µM. With `CC1CCCCC1NC(=O)CN1CCN(S(=O)(=O)c2ccc(Br)s2)CC1` (centres undefined) the Potency was inconclusive [inhibitor, single point]. In the case of `COc1ccc(N2CCN(C(=O)c3ccc4c(c3)CC(c3ccccc3)OC4=O)CC2)cc1` (centres undefined), the Potency is reported as inconclusive [inhibitor, partial curve]. For `CC(=O)c1ccc(N=Cc2c(O)n(-c3cc(Cl)ccc3N3CCOCC3)c(=O)c3ccccc23)cc1`, the Potency was inconclusive [inhibitor, full curve, poor fit]. With `Cc1cnc(-n2ncc(C(=O)N(C)CCc3ccccn3)c2-c2cccs2)nc1-c1ccc(F)cc1` the activity change, negative = growth inhibition was inactive: -14.3% [at 9.04 µM]. With `CC(C)OCCCN1CC(=O)N2C(c3ccccc3)c3[nH]c4ccccc4c3C[C@H]2C1=O` (some centres undefined) the Potency was inconclusive [inhibitor, partial curve]. In the case of `CCc1ccc(-c2nc(C(N)=O)c3[nH]c(=O)n(-c4ccccc4OC)c3n2)cc1`, the Potency is reported as active: 2.31 µM. In the case of `CCNC(=S)N(CCc1c(C)[nH]c2ccc(C)cc12)Cc1cccs1`, the Potency is reported as inconclusive [inhibitor, single point]. With `Cc1ccc(S(=O)(=O)N2CCCC(NC(=O)N3CCN(c4ccccc4)CC3)C2)cc1` (centres undefined) the Potency was inconclusive [inhibitor, partial curve]. In the case of `Cc1nn(-c2ccccc2)c(C)c1C(=O)OC(C)C(=O)NC1CCCCC1C` (centres undefined), the Potency is reported as active: 13 µM. With `Cc1ccc(CN(C)C(=O)c2ccccc2NC(=O)c2ccccc2)o1` the Potency was inconclusive [inhibitor, partial curve]. In the case of `Cc1nn(C(C)C)c(C)c1[C@@H]1C[C@H]2CN(Cc3cccc(Cl)c3)C(=O)[C@]23CCCN13`, the Potency is reported as inconclusive [inhibitor, single point]. For `C/C(=N\NC(=O)C1CCCN(S(=O)(=O)c2ccccc2)C1)c1ccccn1` (centres undefined), the Potency was active: 5.8 µM. For `CCOC(=O)C1=CCN(S(=O)(=O)c2ccccc2Br)C1c1cccc(Cl)c1` (centres undefined), the Potency was inconclusive [inhibitor, single point]. In the case of `CCOc1ccc(CCN2C(=O)C(=O)N([C@@H](Cc3ccccc3)CN3CCC[C@H]3CN3C(=O)C(=O)NC[C@@H]3Cc3ccc(O)cc3)C[C@@H]2CC(C)C)cc1`, the Potency is reported as inconclusive [inhibitor, single point].
% is scaled to controls: 0 for no effect and ±100 for the full control effect; potency is read from the fitted curve at half-maximal effect; tags tell the direction and shape of the fitted curve.
